Data published in PubChem BioAssay AID485364 (National Center for Advancing Translational Sciences (NCATS), 2010).
Among all 360,000 compounds or so, about 11,000 (3.1%) were called active. This list was built around the results that the source calls inconclusive (neither active nor inactive); the mix of calls is not that of the screen. The call rests on the fitted dose curve; in most records, active means well fitted inhibition curve with a large enough effect; inconclusive means small, poorly fitted or top-dose-only effect; inactive means no such curve, though single readings can be large or run the other way. No potency is given beside an inconclusive call; the fits are too rough.

What follows are compounds tested against Schistosoma mansoni thioredoxin glutathione reductase (TGR) (UniProt Q962Y6) (assay: qHTS Assay for the Inhibitors of Schistosoma Mansoni Peroxiredoxins). Conditions: purified TGR, DTNB reduction, TNB absorbance 405 nm; activity change, negative = inhibition: at 114 µM (top of the series) unless noted.
Summary of the method: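 TGR 20 nM + NADPH 100 uM (dispensed conc.), cpd preinc 15 min RT; start with NADPH (500 uM addition) then DTNB (15 mM addition). Kinetic TNB absorbance, 405 nm filter. Four-parameter Hill fit across titration.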
Further: nearly all actives have a fitted effect of over 60% in size.
On the % scale 0 is the no-effect control and ±100 the full control effect; potency means the concentration at half of the fitted maximal effect; tags describe the fitted curve by direction and shape.

SMILES | Potency | activity change, negative = inhibition
S=c1[nH]nc(COc2ccccc2)n1Cc1ccccc1 | inconclusive [inhibitor, single point] | –
COC(=O)c1ccccc1-n1c(CCC(=O)O)ccc1-c1ccc(F)cc1 | inconclusive [inhibitor, partial curve, poor fit] | –
O=C(/C=C/c1ccc(Cl)cc1)NC(=S)Nc1ccc(NC(=O)c2ccco2)cc1 | – | inactive: -1.88%
CCOC(=O)CCSc1nc2c(c(C(F)(F)F)c1C#N)CCC2 | – | inactive: 17.5%
COc1ccccc1/C=C1\C(=O)NC(=S)N(c2ccccc2)C1=O | active: 8.91 µM | –
CC(C)(C)n1nc2c(c1NC(=O)c1ccc(S(=O)(=O)N3CCCC3)cc1)CSC2 | inconclusive [inhibitor, single point] | –
O=C(Cn1cc2c(n1)CCCC2)NCCCN1CCN(Cc2ccccc2)CC1 | inconclusive [inhibitor, partial curve] | –
Cc1oc(C)c2c(=O)cc(-c3ccc4c(c3)OCO4)cc(OC(=O)c3cccc(Cl)c3)c12 | inconclusive [inhibitor, partial curve] | –
N#Cc1ccc2c(c1)C[C@]1(c3ccsc3)OC3=C(C(=O)OC4(CCCCC4)C3)C2O1 | inconclusive [inhibitor, partial curve] | –
c1coc(-c2nc3c([nH]2)CCc2nonc2-3)c1 | inconclusive [inhibitor, full curve, poor fit] | –
N#Cc1c(C(F)(F)F)cc(-c2cccs2)nc1SCC(=O)Nc1cccc(C(F)(F)F)c1 | – | inactive: -0.769%
c1coc(CSCc2cn3cccnc3n2)c1 | inconclusive [inhibitor, partial curve] | –
COc1cc(/C=C2\C(=N)N3N=C(S(C)(=O)=O)SC3=NC2=O)ccc1OC(=O)c1ccco1 | inconclusive [inhibitor, single point] | –
O=C(N/N=C/c1ccccn1)c1cc(-c2ccncc2)nc2ccccc12 | – | inactive: -2.6%
CCC(=O)N1CCc2cc(Br)cc(S(=O)(=O)CCC(=O)NCc3ccco3)c21 | inconclusive [inhibitor, partial curve, poor fit] | –
CC(C)OCCCn1c(-c2ccco2)nc2nc3ccccc3nc21 | active: 50.1 µM | –
Oc1c(Br)cc(Br)cc1CNc1cnc2ccccc2c1 | active: 12.6 µM | –
O=C(O)c1ccc(NC2=C(N3CCOCC3)C(=O)c3ccccc3C2=O)cc1 | inconclusive [inhibitor, partial curve] | –
O=C(/C=C\c1ccco1)Nc1cc([N+](=O)[O-])ccc1F | inconclusive [inhibitor, single point] | –
NNc1nc2c(-c3cccc(C(F)(F)F)c3)nnn2c2ccccc12 | – | inactive: 36.5%
C=CCn1c(COc2ccc(F)cc2)nnc1SCC(=O)NC(=O)NCc1ccco1 | inconclusive [inhibitor, partial curve] | –
Cc1ccc(CN2CCN(Cc3cnc(C)s3)CC2CCO)o1 (stereo unspecified) | inconclusive [inhibitor, partial curve] | –
COc1ccc2c(c1)CC/C(=C\C=C\c1ccccc1)C2=O | active: 44.7 µM | –
COc1cc(CN2CCCCCC2)cc(OC)c1O | inconclusive [inhibitor, single point] | –

SMILES | Potency | activity change, negative = inhibition
c1ccc2c(c1)oc1c(N3CCN(Cc4ccc5c(c4)OCO5)CC3)ncnc12 | – | inactive: 3.87%
COc1ccc(C(=O)N/N=C/c2ccc(N3CCOCC3)o2)cc1OC | active: 7.94 µM | –
CN(C(=O)c1ccccc1C(=O)OCC(=O)c1ccc(F)cc1)c1ccccc1 | – | inactive: -3.15%
CC1(C)CC(=O)C(C(c2ccncc2)C2C(=O)CC(C)(C)CC2=O)C(=O)C1 | inconclusive [inhibitor, full curve] | –
CCn1ccnc1CN(C)C(=O)CC1C(=O)NCCN1Cc1c(F)cccc1Cl (stereo unspecified) | inconclusive [inhibitor, partial curve, poor fit] | –
CCN(CC)S(=O)(=O)c1cccc(C(=O)N/N=C/c2ccc([N+](=O)[O-])o2)c1 | inconclusive [inhibitor, partial curve] | –
CCC1CCCCN1C(=O)CCn1ccnc1 (stereo unspecified) | inconclusive [inhibitor, full curve, poor fit] | –
CCN1CCC2(CC1)C(C#N)=C(N)Oc1c2sc2nc(C)cc(C)c12 | inconclusive [inhibitor, full curve] | –
COc1ccc(C(=O)CN2CCN(c3ncccn3)CC2)cc1 | inconclusive [inhibitor, partial curve] | –
Cc1nn2c(Nc3ccccc3)c3c(nc2c1-c1ccccc1)CCC3 | – | inactive: -4.29%
O=c1c(S(=O)(=O)c2ccccc2)cn(Cc2cccc(F)c2)c2cc(N3CCCC3)c(F)cc12 | – | inactive: -2.24%
CCCCc1nc2ccccc2c(=O)n1NC(=O)c1c(O)c2ccccc2n(C)c1=O | inconclusive [inhibitor, partial curve] | –
Nc1ccc2oc(-c3ccccc3Cl)cc(=O)c2c1O | – | inactive: -18.7%
CCOC(=O)N1CCc2c(sc(NCc3cccs3)c2C(=O)Nc2ccc(OC)cc2OC)C1 | inconclusive [inhibitor, partial curve] | –
COCCc1ncc(CN2CCC(C(=O)Nc3ccc(-n4cccn4)cc3)CC2)cn1 | inconclusive [inhibitor, full curve, poor fit] | –
Cc1ccc(N=c2ssnc2Cl)cc1 | inconclusive [inhibitor, partial curve] | –
CCOc1ccc(CCNC(=O)CS(=O)(=O)Cc2nc(-c3ccccc3F)oc2C)cc1 | inconclusive [inhibitor, partial curve] | –
COc1ccc(C(=O)OCCc2cc3ccccc3c(=O)o2)cc1 | inconclusive [inhibitor, partial curve] | –
O=C(/C=C/c1ccco1)N1CCN(C/C=C/c2ccccc2)CC1 | active: 39.8 µM | –
CC(C)C(=O)Nc1ccc(NC(=S)NC(=O)c2ccc([N+](=O)[O-])cc2)cc1 | inconclusive [inhibitor, full curve] | –
CN1C(=O)N(C)C(=O)C2(Cc3cc(NC(=O)c4ccccc4)ccc3N3CCCC32)C1=O (stereo unspecified) | inconclusive [inhibitor, partial curve] | –
CCCS(=O)(=O)c1nnnn1-c1cccc(OC)c1 | active: 5.62 µM | –
CCOc1ccc(CCNC(=O)Cn2cccc2C(=O)c2ccccc2C)cc1OCC | inconclusive [inhibitor, single point] | –
N=c1sccn1CC(=O)Nc1ccc(Cl)cc1[N+](=O)[O-] | active: 39.8 µM | –

SMILES | Potency | activity change, negative = inhibition
Cc1ncc(CO)c(/C=N/NC(=O)c2cc(O)c(O)c(O)c2)c1O | inconclusive [inhibitor, partial curve] | –
COCc1cc(CNC(=O)C2CCC(=O)N(Cc3ccccc3OC)C2)[nH]n1 (stereo unspecified) | inconclusive [inhibitor, single point] | –
CCN(CC)S(=O)(=O)c1ccc(NC(=O)C(C)N(c2ccc(OC)cc2)S(C)(=O)=O)cc1 (stereo unspecified) | inconclusive [inhibitor, single point] | –
Cc1ccc(-c2ccccc2NC(=O)CCl)o1 | active: 31.6 µM | –
CS/C(N)=N/N=C/c1ccc([N+](=O)[O-])cc1 | – | inactive: -10.1%
COc1cccc(CN2CCN(Cc3[nH]c4ccccc4c3C)CC2CCO)c1 (stereo unspecified) | – | inactive: -4.93% [at 57.1 µM]
COC(=O)C1=C(c2ccc(F)cc2OCc2ccccc2)C[C@@H]2CC[C@H]1N2C(=O)NCc1ccco1 | inconclusive [inhibitor, partial curve] | –
CC(C)N(C(=O)CSc1nnc(-c2ccc3c(c2)OCO3)n1C)C(C)C | – | inactive: -1.53%
O=C(COc1ccccc1)N/N=C/c1cc2c(cc1[N+](=O)[O-])OCO2 | – | inactive: -29.4%
O=C(CCl)Nc1cc(S(=O)(=O)N2CCCCCC2)ccc1Cl | active: 15.8 µM | –
Cc1cccc(-n2c(C)cc(/C=C3\NC(=O)NC3=O)c2C)c1 | inconclusive [inhibitor, partial curve] | –
CCN(CC)CCSc1nc(O)c(Cc2ccccc2)c(=O)n1-c1ccccc1 | inconclusive [inhibitor, single point] | –
O=C(NCc1n[nH]c(=S)n1-c1ccccc1)c1ccco1 | inconclusive [inhibitor, single point] | –
CCn1c(C)c(C(C)=O)c(N2CCN(C(c3ccccc3)c3ccccc3)CC2)nc1=S | inconclusive [inhibitor, partial curve] | –
Cc1ccc(-c2nc(CSCC(=O)NCC3CCCO3)c(C)o2)cc1 (stereo unspecified) | inconclusive [inhibitor, full curve, poor fit] | –
Cc1ccc(C)c(NC(=O)Cc2nc(CNCC(C)C)cs2)c1 | inconclusive [inhibitor, partial curve, poor fit] | –
CCOC(=O)c1c(C)[nH]c(O)c1C=Nc1ccccc1 | – | inactive: -1.25%
O=C(CC(C(=O)O)c1c[nH]c2ccccc12)c1ccccc1 (stereo unspecified) | inconclusive [inhibitor, partial curve] | –
Cc1ccc[n+](CC(=O)Nc2ccc([N+](=O)[O-])cc2)c1 | active: 35.5 µM | –
NS(=O)(=O)c1ccc(NC(=S)NCc2ccco2)cc1 | – | inactive: -22.1%
CC(=O)N/C(=C\c1ccc(C)o1)C(=O)NCc1ccccc1 | inconclusive [inhibitor, partial curve] | –
N#Cc1ccccc1S(=O)(=O)N1CCN(Cc2c(O)ccc3ccccc23)CC1 | active: 0.891 µM | –
COCCn1c(Cc2ccccc2)nnc1SCC(=O)Nc1oc(C)c2c(C)n[nH]c(=O)c12 | active: 50.1 µM | –
